Test results: PubChem BioAssay AID463173 (ICCB-Longwood Screening Facility, Harvard Medical School, 2010)
About 1,700 (3.3%) of roughly 52,000 compounds were called active. No stated cut-off is given here; in the data, active means survival mostly below about 52% (no sharp cut-off); inactive means mostly above about 56%. The list shows a part of the results.

Tested on: Wild type
Assay: S. aureus survival, RN4220 and DeltatarO strains – OD600, teichoic acid synthesis inhibitors, primary screen (AID 463173)
Settings: S. aureus RN4220 wild type/DeltatarO growth, OD600, 18 h, hits give low values, screened at 18.75 µg/mL (by protocol)

SMILES	survival
CCOc1ccccc1-c1nc(Cn2c(=O)cc(C)c3c(C)nn(-c4ccccc4)c32)c(C)o1	inactive: 76%
Oc1ccc(Nc2ncnc3ccccc23)cc1	inactive: 109%
O=C(CSc1ncn(-c2ccccc2)n1)c1ccc(Cl)cc1	inactive: 96%
Cc1cc(C)cc(OCCCn2c(-c3ccc(Cl)cc3)nc3ccccc3c2=O)c1	inactive: 63%
COc1ccc(C(CC(=O)NCc2ccc(Cl)cc2)N2Cc3ccccc3C2=O)cc1OC (stereo not drawn)	inactive: 113%
COC(=O)c1sc(-c2ccccc2)cc1NC(=O)Nc1ccc(F)cc1	active: 13%
Cc1cc(C)cc(NC(=O)C2CCCN2S(=O)(=O)c2ccc3nc(-c4ccccc4)[nH]c3c2)c1 (stereo not drawn)	inactive: 45%
Cc1ccc(OCC(=O)Nc2ccc(S(=O)(=O)Nc3cc(C)on3)cc2)c(Br)c1	inactive: 93%
CCNC(=S)Nc1cc(-c2ccc(Cl)cc2)[nH]n1	inactive: 111%
COc1ccc2[nH]c(=O)c(CN(CCO)S(=O)(=O)c3ccc(Cl)c(C(F)(F)F)c3)cc2c1	inactive: 119%
CCOC(=O)Cn1c(=O)oc2cc(S(=O)(=O)N3CCN(c4cccc(C)c4)C(C)C3)ccc21 (stereo not drawn)	inactive: 72%
CC(=O)Nc1ccc2nc3c(=O)n(C)c(=O)n(C)c3nc2c1C	inactive: 81%
COc1ccccc1CNC(=O)C(C)n1c(=O)cc(-c2ccccc2)c2c(C)nn(C)c21 (stereo not drawn)	inactive: 72%
CC(C)c1nn2c(=O)cc(COC(=O)c3cccs3)nc2s1	inactive: 70%
Cc1[nH]n(-c2nc(-c3ccccc3)cs2)c(=O)c1N=Nc1ccc(O)cc1	inactive: 104%
Cc1nc2cccnc2n1-c1cccc(C(=O)NCCN(C)C)c1	inactive: 64%
CCSc1nsc(NC(=O)Nc2cccc(OC)c2)n1	inactive: 95%
CCc1ccc(CNC(=O)c2cnc3sc(N4CCOCC4)nn3c2=O)cc1	inactive: 74%
N#Cc1nc(-c2ccc(COc3ccccc3)o2)oc1N1CCN(c2ccccc2)CC1	inactive: 88%
O=C1CCSC2(C(=O)N(Cc3ccc(F)cc3)c3ccccc32)N1c1ccc(Cl)cc1 (stereo not drawn)	inactive: 70%
COc1ccc(Cl)cc1NC(=O)N1CCN(Cc2cc(=O)n3nc(-c4ccccc4)sc3n2)CC1	inactive: 71%
O=C(Nc1cccn(Cc2ccccc2)c1=O)NC1CCCCC1	inactive: 121%

SMILES	survival
Cc1cccc(OC(=O)c2cc(-c3ccc(C)c(C)c3)on2)c1	active: -7%
CCOC(=O)c1cnn(-c2ccc(C(=O)Nc3ccc(C(C)=O)cc3)cc2)c1N	inactive: 81%
NC1=NC(c2cccc(Cl)c2)n2c(nc3ccccc32)N1 (stereo not drawn)	inactive: 97%
CCCS(=O)(=O)Nc1cccc(-c2cn3ccc(C)cc3n2)c1	inactive: 81%
CCOc1ccc2c(c1)c(=O)c(S(=O)(=O)c1ccc(F)cc1)cn2CC(=O)Nc1ccccc1C	inactive: 90%
COCCN(Cc1ccco1)C(=O)c1cc2c(=O)[nH]c3ccc(C)cc3c2s1	inactive: 76%
CCOC(=O)c1c(S(=O)(=O)N2CCCC(C(=O)NCc3cccc(C)c3)C2)c(C)n(C)c1C (stereo not drawn)	inactive: 77%
Cc1ccc(-c2csc(NC3OC(=O)c4c#cccc43)n2)cc1 (stereo not drawn)	inactive: 98%
COc1cc2cc(CNc3ccccc3)c(=O)n(CC(=O)Nc3ccc(C)c(Cl)c3)c2cc1OC	inactive: 73%
Cc1ccc(-c2noc(-c3ccc(N4CCN(C)CC4)c([N+](=O)[O-])c3)n2)cc1	inactive: 85%
O=C(COc1ccccc1)NCC(c1ccc(Cl)cc1)N1CCOCC1 (stereo not drawn)	inactive: 77%
Cc1ccc(NC(=O)c2oc3ccc4c(c3c2C)C(=O)CC(C)(C)O4)c(C)c1	inactive: 87%
CCCCNC(=O)C1CCN(Cc2cccc(OC)c2O)CC1	inactive: 132%
COc1ccc(C)cc1NS(=O)(=O)c1c(C(=O)N2CCC(C)CC2)c(C)n(C)c1C	inactive: 85%
COC(=O)c1ccc(NC(=O)CCCC(=O)OCC(=O)c2ccc(Cl)cc2)cc1	inactive: 87%
CCCCNC(=O)c1c(N)no[n+]1[O-]	inactive: 107%
CCOc1c(Br)cc(C2CC(=O)Nc3cc4c(cc32)OCO4)cc1OC (stereo not drawn)	inactive: 142%
O=C(CSc1n[nH]c(-c2ccc(F)cc2)n1)NCc1ccccc1Cl	inactive: 80%
COc1ccc(C2C=C(c3ccc(Cl)cc3)Nc3nc(-c4ccc(Cl)cc4)nn32)cc1 (stereo not drawn)	inactive: 88%
COc1ccc(CCNC(=O)c2cccc(Nc3nc4ccccc4nc3-n3nc(C)cc3C)c2)cc1OC	inactive: 120%
CC(=O)N1CCc2cc(Br)cc(S(=O)(=O)N3CCC(C(=O)Nc4ccc(C(C)C)cc4)CC3)c21	inactive: 137%
COc1ccc(C(=O)CC2(O)C(=O)N(Cc3cccc(C(F)(F)F)c3)c3ccccc32)cc1 (stereo not drawn)	inactive: 32%

SMILES	survival
Cn1ncc2c(N3CCN(c4ccccc4F)CC3)ncnc21	inactive: 71%
CCOc1ccc(/C=C/c2nc(C#N)c(NC(C)c3ccccc3)o2)cc1 (stereo not drawn)	inactive: 79%
COc1ccc(C)cc1NC(=O)Nc1cccc(OCc2cc(=O)n3ccc(C)cc3n2)c1	inactive: 73%
Cc1ccccc1OCC(=O)NCC(c1ccc(Cl)cc1)N1CCCCC1 (stereo not drawn)	inactive: 78%
CCCCc1ccc(NC(=O)c2ccc3c(c2)CCN3S(=O)(=O)CC)cc1	inactive: 80%
COc1cccc(C(=O)N2c3ncnn3C3(CCCCC3)[C@@H]3CCCC[C@@H]32)c1	inactive: 81%
COc1ccc(N2CCN(S(=O)(=O)c3ccc(-c4ccno4)cc3OC)CC2)cc1	active: 1%
CCc1cccc(C)c1NC(=O)CN1C(=O)C2(SCC(=O)N2c2cccc(F)c2)c2ccccc21 (stereo not drawn)	inactive: 136%
CC(C)(C)NC(=O)CSc1nnc(Cc2ccc3c(c2)OCO3)n1C1CCCCC1	inactive: 104%
CN(Cc1ccccc1)S(=O)(=O)c1ccc(NC(=O)c2cc(=O)c3ccccc3o2)cc1	inactive: 79%
O=C(Nc1cccc(Cl)c1N1CCOCC1)c1ccco1	inactive: 101%
Cc1ccccc1NC(=O)Cn1c(=O)n(CCc2ccccc2)c(=O)c2ccccc21	inactive: 99%
COc1ccc(C(=O)COC(=O)c2cc(-c3cccs3)nc3ccccc23)cc1	inactive: 66%
COc1ccc(OC)c(Nc2sc(C(=O)c3ccccc3)c(N)c2S(=O)(=O)c2ccccc2)c1	inactive: 86%
Cc1cccc(N2CCN(S(=O)(=O)c3cc(C(=O)Nc4ccc(Oc5ccccc5)cc4)ccc3F)CC2)c1C	inactive: 83%
O=c1oc2ccccc2c(N2CCN(c3ccc(F)cc3)CC2)c1CN1CCCC1	inactive: 78%
CC(C(=O)Nc1ccc(OC(F)(F)F)cc1)N1Cc2ccccc2C1=O (stereo not drawn)	active: -3%
Cc1oc(-c2ccccc2F)nc1CN1CCC(C(=O)NCCc2ccccc2)CC1	inactive: 86%
CCCCn1cc(S(=O)(=O)c2cc(C)ccc2C)c(=O)c2cc(F)c(F)cc21	inactive: 83%
CCc1nn2c(=O)cc(COC(=O)c3ccccc3NC(=O)COc3ccc(C)c(C)c3)nc2s1	inactive: 82%
COc1ccc(CNC(=O)C(C)n2nc(C)c3c(C)n(-c4ccccc4)nc3c2=O)c(OC)c1 (stereo not drawn)	inactive: 148%
Cc1ccc(CNC(=O)Cc2csc3ccccc23)cc1	inactive: 94%

SMILES	survival
Oc1ccccc1-c1nnc(SCc2ccccc2)o1	inactive: 103%
CCOC(=O)c1cccc(NC(=O)c2oc3c(c2C)-c2nn(CC)cc2CC3)c1	inactive: 90%
Cc1c(Cl)cccc1-n1ncc(C(=O)NC2CCCCC2)c1C1CCN(C(=O)OC(C)(C)C)CC1	inactive: 75%
COc1ccc(Br)cc1[C@@H]1Nc2ccc(C(=O)O)cc2[C@@H]2C=CC[C@@H]21	inactive: 65%
CCOc1ccc(CCNC(=O)CSc2nnnn2-c2ccccc2)cc1OCC	inactive: 129%
C#CCn1c(=O)n(-c2cccc(Cl)c2C)c(=O)c2c3c(sc21)CN(C(C)=O)CC3	inactive: 81%
Cc1ccc(C)c(N2CCN(CCCNC(=O)c3cnn(-c4ccc(F)cc4)c3C3CCN(C(=O)OC(C)(C)C)CC3)CC2)c1	inactive: 88%
CC(C)C(=O)Nc1nc2c(s1)CC(C(C)(C)C)CC2 (stereo not drawn)	inactive: 118%
CCOc1ccc(CNC(=O)Cn2nc(C)c3c(C)n(-c4ccc(C)cc4)nc3c2=O)cc1	inactive: 78%
COc1ccc(-c2cnc(C)o2)cc1S(=O)(=O)Nc1ccc(OC(F)(F)F)cc1	inactive: 71%
Cc1ccc(C)c(CSc2nnc(C)n3c2cc2sccc23)c1	inactive: 65%
O=C(CCS(=O)(=O)c1ccccc1)N(Cc1cccnc1)c1nc2ccc(F)cc2s1	inactive: 124%
CC(=O)c1ccc(-n2c(CCC(=O)O)ccc2-c2cccs2)cc1	inactive: 69%
CC1=C(C)CC(C(=O)Nc2ccc(NC(=O)NC3CCCCC3)cc2)C(C(=O)O)C1 (stereo not drawn)	inactive: 97%
O=C(Cn1c(=O)nc(-c2ccccc2)c2ccccc21)N1CCN(c2ccc(F)cc2)CC1	inactive: 83%
COc1cc(OC)c(NC2=C(c3ccc(C(F)(F)F)cc3)C(=O)c3ccccc32)cc1Cl	inactive: 69%
COc1cc(NC(=O)C(Cc2ccccc2)NS(=O)(=O)c2cccs2)cc(OC)c1 (stereo not drawn)	inactive: 124%
Cc1noc(/C=C/c2ccccc2F)c1S(=O)(=O)N1CCC(C(=O)NCC(C)c2ccccc2)CC1 (stereo not drawn)	inactive: 74%
O=C(CS(=O)(=O)c1cccc2nsnc12)NCc1ccccc1	inactive: 71%
OCCCn1c(-c2ccc(F)cc2)csc1=Nc1ccc(F)cc1	active: 9%
CC(C)Oc1ccccc1NC(=O)CSc1nccn1C	inactive: 73%
O=C(O)CSc1nc2ccc(NC(=O)COc3ccc(Cl)cc3)cc2s1	inactive: 88%
